The whole screen tested about 48,000 compounds, of which about 1,200 (2.5%) were called active. Inconclusive results (about 2%) are left out.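 How the source made its calls: active means activation of at least 60% and not above a set upper limit (about 1 call in 100 departs from these limits); inconclusive means activation of 40% to 60%, or above that upper limit; inactive means activation under 40%.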 This is one part of the list.

Sequence of UniProt O75388 (O75388 whole entry, looked up, the tested form may be a part): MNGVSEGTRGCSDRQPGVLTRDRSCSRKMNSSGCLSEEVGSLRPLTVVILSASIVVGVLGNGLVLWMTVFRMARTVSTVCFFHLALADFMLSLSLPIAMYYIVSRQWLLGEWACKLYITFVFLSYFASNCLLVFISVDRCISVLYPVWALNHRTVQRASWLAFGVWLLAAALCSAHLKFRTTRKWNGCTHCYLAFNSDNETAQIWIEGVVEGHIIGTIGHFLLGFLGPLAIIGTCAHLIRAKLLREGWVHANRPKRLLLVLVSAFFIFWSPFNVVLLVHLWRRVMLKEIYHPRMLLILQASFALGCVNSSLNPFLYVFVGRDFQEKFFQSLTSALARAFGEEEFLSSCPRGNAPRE

The target in this assay is Probable G-protein coupled receptor 32 (Homo sapiens) (UniProt O75388). Briefly: qHTS for Agonists of Human Resolvin D1 Receptor DRV1. Further: 0% is about no effect. As to conditions: CHO-K1 GPR32 beta-arrestin PathHunter luminescence, 90 min; at 76.9 µM; hits give high values; zero percent set by DMSO-only wells. In short, it runs like this:
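GPR32 activation in stably transfected CHO-K1 cells, detected as beta-arrestin recruitment by enzyme-fragment complementation. Compound exposure: 90 min, 37 °C.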
A general note: In qHTS, concentration-response curves come from the screen itself.
For `CCOc1ccc(S(=O)(=O)NCC(c2ccco2)S(=O)(=O)c2ccc(F)cc2)cc1` (stereo not given), the activation is inactive: -24.5%.
For `COc1ccc(-c2nc3ccccc3o2)cc1NC(=O)COc1ccc(C(C)(C)C)cc1`, the activation was inactive: -14.8%.
Regarding `Cc1ccc(CN2C(=O)C3(c4ccccc42)N(c2cccc(C(F)(F)F)c2)C(=O)CS3(=O)=O)cc1` (stereo not given), the activation was inactive: -25.1%.
For `CCc1cccc(NC(=O)Cn2nc(-c3cc(C)ccc3C)ccc2=O)c1` the value was inactive: 12.2%.
Regarding `N=C(N=C(N)N)N1CCOCC1`, the activation was inactive: -2.31%.
Turning to `Cc1nnc(NCc2ccccc2)c2c1nnn2Cc1ccc(F)cc1`, the activation was inactive: -3.26%.
For the compound `CC(Oc1ccccc1Cl)C(=O)N1CCN(CCc2ccccn2)CC1` (stereo not given), the activation is inactive: 11.1%.
For `COc1cc(NC(=O)c2cc3c(=O)n(Cc4cccs4)ccc3nc2C)cc(OC)c1OC` the value was inactive: -12.8%; for `COc1ccccc1NC(=O)CSc1oc(-c2cccs2)nc1S(=O)(=O)c1ccccc1`, inactive: -21.1%; for `O=c1cc(CSc2n[nH]c(-c3ccccc3)n2)[nH]c2ccccc12`, active: 93%.
As for `CC(Sc1nc(=O)cc(N)n1CCc1ccccc1)C(=O)Nc1ccccc1C#N` (stereo not given), the activation is inactive: 12.1%.
With `O=C(CN1C(=O)COc2ccc(S(=O)(=O)N3CCOCC3)cc21)N1CCN(c2ccc(F)cc2)CC1`, the activation was inactive: -1.74%.
Consider `COc1ccc(OC)c(NC(=O)CN2C(=O)CCc3cc(S(=O)(=O)N4CCCCC4)ccc32)c1`, for which the activation is inactive: -19.2%.
For `O=C(NC1CCCCC1)c1ccc2c(c1)N(Cc1ccc(Cl)cc1)C(=O)c1ccccc1S2(=O)=O` the value was inactive: -18.5%; for `COc1ccc(Cn2ccnc2SCC(=O)Nc2nc3ccccc3s2)cc1`, inactive: -17.7%; for `COc1cc2ncc3c(-c4ccc(C)cc4)nn(-c4ccc(F)cc4F)c3c2cc1OC`, inactive: -9.13%.
In the case of `CN(C)CCCNc1cc(N2CCN(C3CCCCC3)CC2)c2noc3c2c1C(=O)c1ccccc1-3`, the activation is inactive: -4.71%.
For `O=C(NCc1ccc2c(c1)CCN2C(=O)c1ccccc1)Nc1cccc(C(F)(F)F)c1` the value was inactive: 7.72%; for `Cc1ccccc1OCCSc1nc2ccc(NC(=O)c3cccc(F)c3)cc2s1`, inactive: 5.85%; for `Cc1ccc(NC(=O)CN2C(=O)c3cccnc3Oc3ccc(Cl)cc32)cc1`, inactive: -13%.
Turning to `Cc1c(C(=O)NCc2ccccc2Cl)sc2ncnc(N(C)C3CCCCC3)c12`, the activation is inactive: -4.36%.
For the compound `Cc1ccn2c(Nc3ccc4c(c3)OCCO4)c(-c3ccc(C)o3)nc2c1`, the activation is inactive: -14%.
Regarding `Cc1cc(Nc2ccccc2C)n2nc(Cc3ccc(Cl)cc3)nc2n1`, the activation is inactive: -28.7%.
Consider `Cc1ccc(C(C)C)c(O)c1`, for which the activation is inactive: -0.226%.
`CCOC(=O)c1c(C)n(-c2ccccc2)c2ccc(OC(=O)COc3ccc(Cl)cc3)cc12`: the activation was inactive: -4.77%.
`Cc1ccccc1-c1nc(CN2CCC(C(=O)NCc3ccc(F)cc3)CC2)c(C)o1`: the activation was inactive: 15%.
Turning to `CC(=O)c1ccc(NC(=O)c2ccc3c(c2)N(Cc2cccc(Cl)c2)C(=O)c2ccccc2S3=O)cc1` (stereo not given), the activation was inactive: -14.6%.
Regarding `COc1ccc(NC(=O)c2cc3c(s2)-c2c(C)cccc2OC3)cc1Cl`, the activation is inactive: 9.43%.
On to `CCCN(CCC)c1ccc(C2N=C(N)Nc3nc4ccccc4n32)cc1` (stereo not given), for which the activation is inactive: -17.4%.
For `CCOc1cc(C(=O)Nc2ccc(-c3cn4cccnc4n3)cc2)cc(OCC)c1OCC` the value was inactive: 11%; for `CCNC(=O)C1CCN(S(=O)(=O)c2ccc3c(c2)CCCN3C(C)=O)CC1`, inactive: 18.1%; for `Cn1c(=O)oc2cc(S(=O)(=O)CCC(=O)N3CCN(c4cccc(Cl)c4)CC3)ccc21`, inactive: 29.8%.
With `O=C(NCc1ccccc1)c1ccc(NC(=O)N2CC3CCCN3c3ccccc32)cc1` (stereo not given), the activation was inactive: -26.5%.
Under `Cc1ccc(C)c(N2CCN(S(=O)(=O)c3cc(C(=O)Nc4ccc(Oc5ccccc5)cc4)ccc3F)CC2)c1` stands inactive: -6.96%; under `COc1ccc(Br)cc1CNC(=O)c1cnc2sc(N3CCC(C)CC3)nn2c1=O`, inactive: 3.3%.
For `Cc1ccc(S(=O)(=O)c2nnn3c2nc(NCc2ccc4c(c2)OCO4)c2sccc23)cc1C` the value was inactive: -15.4%.
For `CCCCNC(=O)CCCCCn1c(=O)[nH]c2ccccc2c1=O`, the activation is inactive: -9.44%.
Regarding `Cc1ccc2c(c1)c1c(c(=O)n(-c3ccccc3)c(=O)n1CC(=O)NCC1CCCO1)n2C` (stereo not given), the activation was inactive: -10.6%.
For the compound `COc1cc(Cl)c(NC(=O)c2cc3ccccn3n2)c(OC)c1`, the activation is inactive: 22%.
As to `Cc1cccc(NC(=O)C2CCCN2S(=O)(=O)c2ccc3nc(-c4ccccc4)[nH]c3c2)c1` (stereo not given), the activation is inactive: 6.53%.
For `Cc1nc2ccccn2c(=O)c1NC(=O)c1ccc(F)c(F)c1` the value was inactive: -8%; for `COc1ccc(CCNC(=O)CN2C(=O)COc3ccc(S(=O)(=O)N4CCCC4)cc32)c(OC)c1`, inactive: -19.8%.
Regarding `Cc1c(C(=O)NCc2cccc(Cl)c2)sc2nc3n(c(=O)c12)CCCC3`, the activation was inactive: -1.03%.
Regarding `COc1ccc(-c2cnnn2-c2ccc(NC(=O)c3ccccc3OC)cc2)cc1`, the activation was inactive: -22.3%.
For `COc1ccc(C2=C(N3CCN(c4cccc(C)c4C)CC3)c3ccccc3C2=O)cc1` the value was inactive: -3.22%.
As for `Cc1ccc(NC(=O)CC2Oc3ccccc3NC2=O)cc1C` (stereo not given), the activation is inactive: -3.17%.
Under `CCN(CC)CCCNC(=O)c1ccc(Cn2c(SCc3ccccc3)nc3cccnc32)cc1` stands inactive: -7.24%; under `Cn1c(=O)n(Cc2c(F)cccc2Cl)c(=O)c2c1nc1n2CCN1c1ccc(F)cc1`, inactive: 4.8%.
Take `Cc1c(C(=O)NCc2cccc(Br)c2)oc2ccc3c(c12)C(=O)CC(C)(C)O3`: the activation is inactive: -35.2%.
In the case of `COc1c(C)cccc1C(=O)Nc1ccc(-c2nc3ccccc3s2)c(Cl)c1`, the activation was inactive: 6.92%.
Regarding `Nc1nn(-c2ccccc2)nc1C(=O)OCc1ccc(Cl)cc1`, the activation is inactive: -4.37%.
In the case of `COc1ccc(-c2nc3sc(CCNC(=O)C(=O)Nc4cccc(NC(C)=O)c4)c(C)n3n2)cc1`, the activation is inactive: 12.6%.
On to `CC1=C(C(=O)NCc2ccccc2F)C2(CCCCC2)OC1=O`, for which the activation was inactive: 2.9%.
`Cc1ccc(CCNC(=O)C2CCCN(c3nnc(C)c4c(C)n(-c5ccccc5)nc34)C2)cc1` (stereo not given): the activation was inactive: -14.5%.
Under `COc1ccc(-c2cn3nc(N4CCCC(C(=O)NCc5ccc(Cl)cc5)C4)sc3n2)cc1` (stereo not given) stands inactive: -2.97%; under `COCCNC(=O)c1nn(-c2ccc(C)cc2)c(=O)c2c1c1ccccc1n2C`, inactive: -0.543%; under `O=C(Nc1ccccc1Cl)N1CCC(CN2CCCC2)CC1`, inactive: -16%.
Turning to `COc1cccc(-c2nc(CS(=O)(=O)CC(=O)NCc3cccc(Cl)c3)c(C)o2)c1`, the activation is inactive: -10.6%.
Under `Cc1ccc(CSc2ncc(Cl)c(C(=O)Nc3nnc(C)s3)n2)cc1` stands inactive: 26.6%; under `CC1=C(c2ccc(F)cc2)S(=O)(=O)N=C1N1CCC(C(=O)NCCc2cccc(C)c2)CC1`, inactive: 2.28%.
With `COC(=O)c1c(C)oc2ccc(N(C(=O)c3ccncc3)S(=O)(=O)c3ccc(OC)cc3)cc12`, the activation was inactive: 22.9%.
Consider `O=C(Nc1cccc(C(F)(F)F)c1)c1ccc2c(c1)nnn2C1CCCC1`, for which the activation was inactive: 36.6%.
For `CCc1ccc(-n2c(=O)c3c4c(sc3n(Cc3ccccc3C#N)c2=O)CCC4)cc1`, the activation is inactive: 1.09%.
As for `COc1ccc(S(=O)(=O)NCCc2nnc3ccc(SCC(=O)Nc4ccccc4C)nn23)cc1`, the activation is inactive: -9.02%.
In the case of `Cn1cc(CN(C(=O)Nc2ccccc2)C2CCCCC2)c2ccccc21`, the activation is inactive: -44.2%.
`COc1ccc(-c2nc3sc(CCNC(=O)c4ccco4)c(C)n3n2)cc1`: the activation is inactive: 22.9%.
As for `CCS(=O)(=O)Nc1ccc(-c2cn3ccsc3n2)cc1`, the activation was inactive: -2.6%.
Under `CN(C)c1ccc(CNS(=O)(=O)c2ccc(-c3cc(C(F)(F)F)on3)s2)cc1` stands inactive: -5.55%; under `COc1cc2c(cc1OC)CN(C(=O)Nc1ccccc1)CC2`, inactive: -10%; under `CCCCn1c(=O)c2oc3ccccc3c2n(CC(=O)Nc2ccc(CC)cc2)c1=O`, inactive: -10.5%.
In the case of `CCn1cc2nc(SCc3cc(C)ccc3C)n(CCc3ccccc3)c(=O)c2n1`, the activation is inactive: -3.74%.
Regarding `Cc1cccc(N2CCN(S(=O)(=O)c3c(C)nc4scc(C)n4c3=O)CC2)c1C`, the activation is inactive: -2.99%.
Under `COc1ccccc1NC(=O)c1ccc(COc2ccc(C)c(C)c2)o1` stands inactive: -8.82%; under `CCCCn1c(=N)n(CCCOc2ccc(F)cc2)c2ccccc21`, active: 76%.
For `O=c1n(Cc2ccccc2Cl)c2ccccc2c2nc(-c3ccccc3)nn12` the value was inactive: -6.14%.
For `Cc1nn2c(=O)cc(COC(=O)c3ccc(NC(=O)COc4ccc(C)c(C)c4)cc3)nc2s1` the value was inactive: 19.5%; for `Cc1ncc(CO)c2c1Oc1nc(-c3ccccc3Cl)nc(SCc3ccccc3F)c1C2`, inactive: 12.6%.
Regarding `COCCCNC(=O)Cn1cnc2sc(C)c(S(=O)(=O)N3CCC(C)CC3)c2c1=O`, the activation was inactive: -2.51%.
Under `Cc1ccc(C)c(NC(=O)n2ncc3cc(Cl)ccc32)c1` stands inactive: -3.69%.
In the case of `COC(=O)C(C)Sc1ccc2nnc(CCNS(=O)(=O)c3ccc(C)cc3)n2n1` (stereo not given), the activation is inactive: -7.47%.
Under `CCOc1ccc(C2CC(=O)Nc3nc(SCc4ccccc4C)[nH]c(=O)c32)cc1OC` (stereo not given) stands inactive: -17.4%; under `CC(C)NC(=O)c1ccc(Cn2c(SCC(N)=O)nc3ccccc3c2=O)cc1`, inactive: -1.08%; under `COc1ccc(C2CC(=O)N3CN(C4CCCCC4)CSC3=C2C#N)c(OC)c1` (stereo not given), inactive: 40%.
Under `O=C(NCc1cccnc1)c1nn(-c2ccc(Cl)cc2)nc1CO` stands inactive: -6.87%; under `COc1cc(Cl)c(C)cc1Nc1nc2ccccc2c2nnc(C)n12`, inactive: -1.06%.

For the origin of these results see PubChem BioAssay AID1346428 (National Center for Advancing Translational Sciences (NCATS), 2018).
